Laboratory results published in PubChem BioAssay AID493208 (National Center for Advancing Translational Sciences (NCATS), 2011).
About 340 (0.77%) of roughly 44,000 compounds were called active. Inconclusive results (about 5%) are left out. The call rests on the fitted dose curve; in most records, active means well fitted inhibition curve with a large enough effect; inconclusive means small, poorly fitted or top-dose-only effect; inactive means flat fitted curve, though single readings scatter. The list shows a part of the results.

assay: Acumen qHTS Assay for Inhibitors of the mTORC1 Signaling Pathway in MEF (Tsc2-/-, p53-/-) Cells: Sytravon; conditions: phospho-rpS6 immunofluorescence/PI, 24 h; series mostly up to 38.3 µM; activity change, negative = inhibition: at the top concentration; further: nearly all actives have a fitted effect of over 50% in size;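 on activity change, negative = inhibition: plate controls were DMSO for no effect and rapamycin for full effect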
Procedure, shortened: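 Read-out: phospho-S6 Alexa-488 intensity over PI intensity per well, scored as % active cells using thresholds from rapamycin (7.5 nM) and DMSO controls. Tsc2-/-, p53-/- MEFs exposed to compound for 24 h; PI cell count recorded as viability.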
Potency means the concentration at half of the fitted maximal effect.

Activity change, negative = inhibition, inactive:
O=S(=O)(NCC(c1ccco1)N1CCN(c2ccccc2)CC1)c1ccccc1 (stereo unspecified) -10.5%
Cc1cccn2c3c(c(=O)nc12)C(c1ccc(F)cc1)CC(=O)N3 (stereo unspecified) -16.4%
CCCN(C(=O)c1c(C)oc2ncnc(N3CCOCC3)c12)c1ccc(Cl)c(Cl)c1 7.85%
CCOc1ccc(Cn2nnc(C(=O)Nc3ccc(Cl)cc3)c2N)cc1 0.673%
CN(C1CCCCC1)S(=O)(=O)c1ccc2c(c1)c(=O)c(C(=O)NCc1ccc(F)cc1)cn2C -8.09%
COc1ccccc1CNC(=O)C1CCN(C(=O)c2sccc2-n2cccc2)CC1 -19%
CCn1ccc2c(OCC(=O)Nc3ccc(C(C)=O)cc3)cccc2c1=O 2.57%
COc1ccccc1CNC(=O)c1cc2c(-c3ccc(Cl)cc3)nn(C)c2s1 -3.66%
Cc1ccc(S(=O)(=O)Nc2ccc3[nH]c(=O)sc3c2)cc1C 2.41%
O=C(c1ccc2c(c1)N(Cc1ccc(Cl)cc1)C(=O)c1ccccc1S2(=O)=O)N1CCC(Cc2ccccc2)CC1 -0.928%
O=C(c1ccc2c(c1)N(Cc1ccc(F)cc1)C(=O)c1ccccc1S2(=O)=O)N1CCCCCC1 0.226%
CCOc1ccc(NC(=O)CSC2=Nc3ccccc3C3=NC(CC(=O)NCc4ccccc4OC)C(=O)N23)cc1 (stereo unspecified) -0.391%
Cc1ccc(N2CC(NC(=O)c3ccco3)CC2=O)cc1 (stereo unspecified) -3.72%
COc1cccc(-n2c(=O)c3cc(OC)c(OC)cc3n(CC(=O)Nc3ccccc3)c2=O)c1 -5.78%
O=C(Nc1cc2c(cc1C(=O)c1ccc(Br)cc1)OCCO2)c1ccc(Cl)cc1 6.62%
Cc1oc(-c2ccccc2F)nc1CS(=O)(=O)CC(=O)N1CCN(c2ccc(Cl)cc2)CC1 -2.65%
Cc1ccc(C)c(S(=O)(=O)c2cn(C)c3cc(F)c(F)cc3c2=O)c1 3.58%
CCc1cccc(NC(=O)c2c(N3CCCC3=O)c3cc(C)ccc3n2C)c1 -2.6%
COc1ccc(CCn2c(=O)c3ccccc3n(CC(=O)Nc3cccc(C)c3)c2=O)cc1OC -2.79%
CC(=O)Nc1ccccc1-c1nc2ccccc2n(CC(=O)Nc2ccc(C)c(Cl)c2)c1=O -20.3%
Cc1ccc(S(=O)Cc2ccc(C(=O)NC3CCCCCC3)o2)cc1 (stereo unspecified) -3.05%
Cc1[nH]c2ccc(C(=O)Nc3ccc(F)cc3)cc2c1C -16.4%
Cc1ccccc1CN1C(=O)c2ccccc2S(=O)c2ccc(C(=O)NCc3ccco3)cc21 (stereo unspecified) 0.15%
CCN(C(=O)CCS(=O)(=O)c1ccc2c(c1)oc(=O)n2C)c1ccc(OC)cc1 6.54%
Cc1ccc(NC(=O)CSc2nc3c(c(=O)[nH]2)CCC3)cc1Cl -14.6%
CCn1c(COc2cccc(C)c2)nc2ccccc21 -10.9%
O=S(=O)(c1ccc(Br)cc1)c1nc(-c2cccs2)oc1SCc1ccc(F)cc1 4.49%
CCS(=O)(=O)N1CCC2(CC1)OC(=O)C(C)=C2C(=O)NCc1cccc(Cl)c1 -3.23%
COc1cc2c(cc1NC(=O)COc1ccc(Br)cc1C)oc1ccccc12 -3.5%
Cc1ccc(C)c(N2CCN(C(=O)C3CCN(C(=O)c4cc5sccc5n4C)CC3)CC2)c1 -1.66%
Cc1ccccc1NS(=O)(=O)c1ccc2c(c1)NC(=O)CCS2 4.26%
CC(C)CCNC(=O)CCC(=O)N1Cc2ccccc2Oc2ncccc21 2.52%
CCn1c(SCC(=O)Nc2ccccc2)nc2c([nH]c3ccccc32)c1=O -6.01%
COc1ccccc1C(=O)Nc1c(C(=O)N2CCN(c3ccccc3F)CC2)oc2ccccc12 -4.92%
Cc1cc2c(cc1S(=O)(=O)NCc1ccccc1)OCC(=O)N2 -0.691%
Cc1ccc(NC(=O)c2ccc(COc3ccccc3Cl)o2)cc1 -7.44%
O=C(c1ccccc1)c1ccc2nc(N3CCN(c4ccccc4)CC3)c3nncn3c2c1 1.21%
CN(C)c1cccc(C(=O)Nc2nc3ccc(S(=O)(=O)NC(C)(C)C)cc3s2)c1 -10.7%
Cc1ccc(CNC(=O)c2ccc3c(c2)NC(=O)C(CS(=O)(=O)Cc2ccc(F)cc2)N3)cc1 (stereo unspecified) 1.46%
CC(C)(C)c1ccc(C(=O)Nc2ccc(C(=O)OCc3cc(=O)n4ccsc4n3)cc2)cc1 13.3%
CCC1CCCCN1CCCNC(=O)c1cn(CC)c2ccc(S(=O)(=O)N(C)C3CCCCC3)cc2c1=O (stereo unspecified) -8.02%
Cc1nc2ccc(S(=O)(=O)CCC(=O)Nc3ccc(C(C)C)cc3)cc2s1 -5.27%
COC(=O)c1sc(-c2ccccc2)cc1NC(=O)Nc1ccccc1Cl -6.12%
Cc1cc(C)cc(Nc2nc3ccccc3nc2-n2nc(C)cc2C)c1 -3.79%
CCOC(=O)N1CCc2c(sc3c2c(=O)n(Cc2ccccc2)c(=O)n3CC(=O)Nc2cccc(C)c2)C1 0.999%
COc1ccc(-c2cn3c(n2)sc2cc(C(=O)Nc4c(C)cccc4C)ccc23)cc1 -2.97%
Cc1ccc(CNC(=O)C2(c3cccs3)CCOCC2)cc1 -6.77%
CCCCC(=O)Nc1cc(-c2nc3cccnc3s2)ccc1C 3.85%
CCOc1ccc(NC(=O)CSc2ncnc3c2sc2ccccc23)cc1 9.7%
CN(C)S(=O)(=O)c1ccc(C(=O)Nc2c(C(=O)Nc3ccc(F)cc3)oc3ccccc23)cc1 -2.99%
COc1ccc(C(=O)n2nc(-c3ccc(Cl)cc3)nc2NCc2ccco2)cc1 -15.3%
CCc1ccc(NC(=O)c2cc3c(COC(C)=O)cnc(C)c3oc2=O)cc1 12.2%
Cc1cc(C)c2c(n1)SCC(=O)N2CC(=O)Nc1ccccc1C -2.26%
CNC(=O)C1CCC(Cn2c(=O)c3sccc3n(CC(=O)NCc3ccc(C)cc3)c2=O)CC1 (stereo unspecified) 5.64%
COc1ccc(NC(=O)Cn2c(=O)oc3cc(Cl)ccc32)c(OC)c1 -3.08%
Cn1c(=O)oc2cc(S(=O)(=O)N3CCCC(C(=O)NCc4ccccc4Cl)C3)ccc21 (stereo unspecified) 0.626%
Cc1ccc(C)c(NC(=O)CCCn2c(C)c3cnn(-c4ccccc4)c(=O)c3c2C)c1 -6.42%
CCc1ccc(NC(=O)CSc2nc(C)c(C(=O)Nc3ccc(Cl)cc3)c(-c3ccc(OC)cc3)c2C#N)cc1 2.11%
Cc1ccc(C2C(=O)N(C3CCCCCC3)CC(=O)N2C(C)C)cc1 (stereo unspecified) 5.64%
Cc1ccccc1C(=O)Nc1sc2c(c1C(=O)O)CCC(C(C)(C)C)C2 (stereo unspecified) 0.437%
O=C(CSc1nc2c([nH]c3ccccc32)c(=O)n1-c1ccc(F)cc1)NCC1CCCO1 (stereo unspecified) 1.39%
O=C(CSc1nc2c([nH]c3ccccc32)c(=O)n1-c1ccccc1)N1CCCc2ccccc21 -1.41%
Cc1cccc(NC(=O)c2cc(CN3CCOCC3)on2)c1C -0.662%
Cc1cccc(S(=O)(=O)c2cn(C)c3cc(N4CCCCCC4)c(F)cc3c2=O)c1 0.483%
O=C(CSc1ccccc1)N1CCc2c([nH]c3ccccc23)C1c1ccc(Cl)cc1 (stereo unspecified) -7.64%
COc1ccc(NC(=O)Cn2nc3c(cc2=O)CCCC3)cc1Cl 2.79%
CCCCc1nn2c(=O)cc(CN(CC)c3ccccc3)nc2s1 1.14%
CC1=C(c2ccc(F)cc2)S(=O)(=O)N=C1N1CCC(C(=O)NCCc2ccccc2)CC1 -7.47%
Cc1nc(N2CCCC2)ncc1C(=O)NCc1ccc(Cl)cc1 5.86%
Cc1ccc(NC(=O)NCCOCCn2c(=O)oc3ccccc32)c(C)c1 0.277%
COc1cccc(-n2c(SCC(=O)Nc3cccc(C)c3)nc3c([nH]c4ccccc43)c2=O)c1 0.187%
O=C(NCc1ccc(Cl)cc1)c1cc2ccc3cccnc3c2[nH]1 -7.05%
COc1ccccc1N1CCN(S(=O)(=O)c2ccc(-c3ccno3)cc2OC)CC1 -3.03%
COc1ccc(OC)c(C2=NS(=O)(=O)N(C)C(C(=O)Nc3ccc(C(C)=O)cc3)=C2)c1 1.55%
COc1cc(CN(C(=O)COc2ccc(Cl)cc2)c2ccccn2)cc(OC)c1OC -6.73%
Cc1ccc(C)c(NC(=O)C2CCN(c3ncnc4c3nc3n4CCCCC3)CC2)c1 -3.98%
CC(C)(C)c1ccc(C(=O)NNc2ncnc3c2cnn3-c2ccc(Cl)cc2)cc1 3.3%
Cc1cccc(C)c1NC(=O)NCCCN1CCN(c2ccccc2)CC1 0.303%
CCc1ccccc1NC(=O)CC(C)S(=O)(=O)c1ccc2c(c1)NC(=O)CO2 (stereo unspecified) 1.23%
CCNC(=O)C1CCN(c2nc3ccccc3nc2C(F)(F)F)CC1 -13.5%
O=C(CSc1nc2c([nH]c3ccccc32)c(=O)n1-c1ccccc1)NCc1ccc(F)cc1 -5.38%
CCc1ccc2occ(CC(=O)Nc3nnc(C)s3)c2c1 2.78%
O=C(CN1C(=O)C2(SCC(=O)N2c2ccccc2)c2ccccc21)Nc1ccccc1C(F)(F)F (stereo unspecified) -6.13%
CC(=O)c1nn(-c2ccc(OC(F)(F)F)cc2)nc1Nc1ccc(Cl)cc1 -1.5%
CCOc1ccc(NC(=O)Cn2cc(S(=O)(=O)c3ccc(C)cc3)c(=O)c3cc(F)ccc32)cc1 0.192%
COc1ccc(S(=O)(=O)N2CCC(C(=O)NC(C)c3ccccc3)CC2)cc1 (stereo unspecified) -2.72%
O=C(Nc1ccc(Br)cc1)c1cc2nc(-c3ccccc3)cc(-c3ccccc3)n2n1 7.41%
Cc1ccc(NC(=O)c2cc(S(=O)(=O)NC3CCCCCC3)ccc2F)cc1F -8.49%
COc1ccc2[nH]cc(CCN=C(NC(=O)c3cccc(Cl)c3)Nc3nc(C)cc(C)n3)c2c1 -15%
Cc1ccc(N2CC(NC(=O)CCc3ccccc3)CC2=O)cc1 (stereo unspecified) -0.354%
COc1ccccc1C(=O)NC(=O)Nc1ccc(-n2nc(C(F)(F)F)cc2C(F)(F)F)cc1 -0.8%
CC1=C(C(=O)NCc2ccc(Cl)cc2)C2(CCCCCC2)OC1=O 1.09%
COc1cccc(CSc2nc3n(n2)C(c2cccnc2)C(C(=O)Nc2ccccc2C)=C(C)N3)c1 (stereo unspecified) -7.64%
COc1ccccc1C(=O)Nc1ccc(C(=O)OCc2cc(=O)n3ccsc3n2)cc1 5.46%
Cc1nc2cc(C(=O)O)ccc2n1-c1ccc(C(C)C)cc1 3.14%

Potency, active:
Cc1ccc(CN2C(=O)C(O)(CC(=O)c3ccc(C)cc3)c3ccccc32)cc1 (stereo unspecified) 9.27 µM
